In patent US20250034239A1 (LINNO PHARMACEUTICALS, published 2025):

What was measured:
[1] = biological target: T1, human properdin (human, UniProt P27918 28-469, biotinylated); assay: target-binding ELISA on human properdin
T1 construct: Recombinant, made in house; tag not described; In the hemolysis assays the target is the properdin of human serum; also called human properdin-biotin; biotin human Properdin
T1 sequence (looked up): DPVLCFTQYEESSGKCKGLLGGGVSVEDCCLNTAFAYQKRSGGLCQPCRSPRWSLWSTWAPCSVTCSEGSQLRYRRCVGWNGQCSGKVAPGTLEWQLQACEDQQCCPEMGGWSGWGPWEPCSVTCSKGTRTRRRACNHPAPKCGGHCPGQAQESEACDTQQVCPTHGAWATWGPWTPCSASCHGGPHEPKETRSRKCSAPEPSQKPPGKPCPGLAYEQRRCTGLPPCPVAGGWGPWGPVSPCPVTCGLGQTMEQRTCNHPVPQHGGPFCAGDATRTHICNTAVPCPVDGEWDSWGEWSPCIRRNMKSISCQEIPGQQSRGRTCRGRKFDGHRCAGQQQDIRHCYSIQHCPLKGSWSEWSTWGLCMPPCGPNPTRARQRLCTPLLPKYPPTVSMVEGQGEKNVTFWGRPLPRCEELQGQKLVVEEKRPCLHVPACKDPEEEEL

[2] = biological target: T2, mouse properdin (mouse, UniProt P11680 23-464, biotinylated); assay: target-binding ELISA on mouse properdin
T2 construct: Recombinant, made in house; In the hemolysis assays the target is the properdin of mouse serum; also called mouse properdin-biotin; mouse FP
T2 sequence (looked up): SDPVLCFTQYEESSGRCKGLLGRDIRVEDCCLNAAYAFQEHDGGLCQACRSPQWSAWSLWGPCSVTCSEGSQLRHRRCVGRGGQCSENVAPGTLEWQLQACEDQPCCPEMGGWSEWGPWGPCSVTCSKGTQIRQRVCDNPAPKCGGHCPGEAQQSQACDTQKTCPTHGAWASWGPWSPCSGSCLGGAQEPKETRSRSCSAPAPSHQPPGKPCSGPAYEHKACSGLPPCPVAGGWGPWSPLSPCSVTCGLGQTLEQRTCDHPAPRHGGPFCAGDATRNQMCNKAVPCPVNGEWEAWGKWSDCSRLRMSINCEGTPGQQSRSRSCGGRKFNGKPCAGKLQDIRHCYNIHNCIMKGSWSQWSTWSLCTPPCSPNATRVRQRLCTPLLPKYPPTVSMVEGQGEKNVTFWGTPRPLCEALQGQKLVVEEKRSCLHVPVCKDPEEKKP

[3] = biological target: T1, human properdin; assay: ELISA on biotinylated properdin captured on streptavidin, anti-human IgG Fc-HRP
[4] = biological target: T2, mouse properdin; assay: as above

B1: SLN12058 (Fc-SLN12036-(G4S)3-SLN7155) (Fc fusion)
chain: [human IgG4 Fc with S228P (EU numbers) not written out]GGGGSGGGSSGGGGSHVQLVESGGGSVQAGGSLRLSCAHPEYTSSSYCMAWIRQAPGKEREGVAAIDTDGSTSYTDSVKGRFTISKDNAKNTLYLQMNNLKPEDTAMYYCAAAPWLLAYGDYCVTRPDFGEWGQGTQVTVSSGGGGSGGGGSGGGGSKVQLVESGGGSVQAGGSLRLSCAASGYTYSIGCMGWFRQAPGKEREGVAAIDSDGSTSYADSVKGRFTISKHNAKNTLYLQMDSLKPEDTAMYYCAADVHPIGHPVAGPHLKSADFGYWGQGTQVTVSS
notes: Bi-paratopic Fc-VHH-VHH
B1: binds [1]; binds [2].

B2: SLN12059 (Fc-SLN12036-(G4S)3-SLN7160) (Fc fusion)
chain: [human IgG4 Fc with S228P (EU numbers) not written out]GGGGSGGGSSGGGGSHVQLVESGGGSVQAGGSLRLSCAHPEYTSSSYCMAWIRQAPGKEREGVAAIDTDGSTSYTDSVKGRFTISKDNAKNTLYLQMNNLKPEDTAMYYCAAAPWLLAYGDYCVTRPDFGEWGQGTQVTVSSGGGGSGGGGSGGGGSHVQLVESGGGSVQSGGSLRLSCAASAYIYSSYCMGWFRQAPGKERERVSVINSDGRTSYADSVKGRFTISQDNAKNTLYLQMNSLKPEDTAMYYCAAVILPPTDGMEYSCNYPAAEYNYWGQGTQVTVSS
notes: Bi-paratopic Fc-VHH-VHH
B2: binds [1]; binds [2].

B3: SLN12060 (Fc-SLN12036-(G4S)3-SLN7162) (Fc fusion)
chain: [human IgG4 Fc with S228P (EU numbers) not written out]GGGGSGGGSSGGGGSHVQLVESGGGSVQAGGSLRLSCAHPEYTSSSYCMAWIRQAPGKEREGVAAIDTDGSTSYTDSVKGRFTISKDNAKNTLYLQMNNLKPEDTAMYYCAAAPWLLAYGDYCVTRPDFGEWGQGTQVTVSSGGGGSGGGGSGGGGSQVQLVESGGGSVQSGGSLRLSCVDSGYTYGHYCMGWFRQAPGKEREGVAAIRRDGVTRYADSVKGRFTISLDNAKSTLYLQMNSLKAEDTAMYYCATQRDCGISGLLWQSSVGYWGQGTQVTVSS
notes: Bi-paratopic Fc-VHH-VHH
B3: binds [1]; binds [2].

B4: SLN12061 (Fc-SLN7150-(G4S)3-SLN12036) (Fc fusion)
chain: [human IgG4 Fc with S228P (EU numbers) not written out]GGGGSGGGSSGGGGSHVQLVESGGGSVQAGGSLRLSCEAFEYYYCMGWFRQAPGKEREGVASFDTSDGSKYYADSVKGRFTISKDIAKNTLYLEMNILQAEDTAMYYCAARPFYVGGTCLPRLTDFSIWGQGTQVTVSSGGGGSGGGGSGGGGSHVQLVESGGGSVQAGGSLRLSCAHPEYTSSSYCMAWIRQAPGKEREGVAAIDTDGSTSYTDSVKGRFTISKDNAKNTLYLQMNNLKPEDTAMYYCAAAPWLLAYGDYCVTRPDFGEWGQGTQVTVSS
notes: Bi-paratopic Fc-VHH-VHH
B4: binds [1]; binds [2].

B5: SLN12021 (Fc-SLN7150-(G4S)3-SLN7155) (Fc fusion)
chain: [human IgG4 Fc with S228P (EU numbers) not written out]GGGGSGGGSSGGGGSHVQLVESGGGSVQAGGSLRLSCEAFEYYYCMGWFRQAPGKEREGVASFDTSDGSKYYADSVKGRFTISKDIAKNTLYLEMNILQAEDTAMYYCAARPFYVGGTCLPRLTDFSIWGQGTQVTVSSGGGGSGGGGSGGGGSKVQLVESGGGSVQAGGSLRLSCAASGYTYSIGCMGWFRQAPGKEREGVAAIDSDGSTSYADSVKGRFTISKHNAKNTLYLQMDSLKPEDTAMYYCAADVHPIGHPVAGPHLKSADFGYWGQGTQVTVSS
notes: Bi-paratopic Fc-VHH-VHH
B5: binds [1]; binds [2].

B6: SLN12022 (Fc-SLN7150-(G4S)3-SLN7160) (Fc fusion)
chain: [human IgG4 Fc with S228P (EU numbers) not written out]GGGGSGGGSSGGGGSHVQLVESGGGSVQAGGSLRLSCEAFEYYYCMGWFRQAPGKEREGVASFDTSDGSKYYADSVKGRFTISKDIAKNTLYLEMNILQAEDTAMYYCAARPFYVGGTCLPRLTDFSIWGQGTQVTVSSGGGGSGGGGSGGGGSHVQLVESGGGSVQSGGSLRLSCAASAYIYSSYCMGWFRQAPGKERERVSVINSDGRTSYADSVKGRFTISQDNAKNTLYLQMNSLKPEDTAMYYCAAVILPPTDGMEYSCNYPAAEYNYWGQGTQVTVSS
notes: Bi-paratopic Fc-VHH-VHH
B6: binds [1]; binds [2].

B7: SLN12023 (Fc-SLN7150-(G4S)3-SLN7162) (Fc fusion)
chain: [human IgG4 Fc with S228P (EU numbers) not written out]GGGGSGGGSSGGGGSHVQLVESGGGSVQAGGSLRLSCEAFEYYYCMGWFRQAPGKEREGVASFDTSDGSKYYADSVKGRFTISKDIAKNTLYLEMNILQAEDTAMYYCAARPFYVGGTCLPRLTDFSIWGQGTQVTVSSGGGGSGGGGSGGGGSQVQLVESGGGSVQSGGSLRLSCVDSGYTYGHYCMGWFRQAPGKEREGVAAIRRDGVTRYADSVKGRFTISLDNAKSTLYLQMNSLKAEDTAMYYCATQRDCGISGLLWQSSVGYWGQGTQVTVSS
notes: Bi-paratopic Fc-VHH-VHH
B7: binds [1]; binds [2].

B8: SLN12024 (Fc-SLN7152-(G4S)3-SLN7155) (Fc fusion)
chain: [human IgG4 Fc with S228P (EU numbers) not written out]GGGGSGGGSSGGGGSDVQLVESGGGSVQVGGSLRLSCVDTSYTYTHYCMGWFRQAPGKEREGVAVMTTDGWTRYADSVKGRFIISKDNAKNTLYLQMNSLKLEDTAMYYCATNPWDSCTTGISTPSTFRTWGQGTQVTVSSGGGGSGGGGSGGGGSKVQLVESGGGSVQAGGSLRLSCAASGYTYSIGCMGWFRQAPGKEREGVAAIDSDGSTSYADSVKGRFTISKHNAKNTLYLQMDSLKPEDTAMYYCAADVHPIGHPVAGPHLKSADFGYWGQGTQVTVSS
notes: Bi-paratopic Fc-VHH-VHH
B8: binds [1]; binds [2].

B9: SLN12025 (Fc-SLN7152-(G4S)3-SLN7160) (Fc fusion)
chain: [human IgG4 Fc with S228P (EU numbers) not written out]GGGGSGGGSSGGGGSDVQLVESGGGSVQVGGSLRLSCVDTSYTYTHYCMGWFRQAPGKEREGVAVMTTDGWTRYADSVKGRFIISKDNAKNTLYLQMNSLKLEDTAMYYCATNPWDSCTTGISTPSTFRTWGQGTQVTVSSGGGGSGGGGSGGGGSHVQLVESGGGSVQSGGSLRLSCAASAYIYSSYCMGWFRQAPGKERERVSVINSDGRTSYADSVKGRFTISQDNAKNTLYLQMNSLKPEDTAMYYCAAVILPPTDGMEYSCNYPAAEYNYWGQGTQVTVSS
notes: Bi-paratopic Fc-VHH-VHH
B9: binds [1]; binds [2].

B10: SLN12026 (Fc-SLN7152-(G4S)3-SLN7162) (Fc fusion)
chain: [human IgG4 Fc with S228P (EU numbers) not written out]GGGGSGGGSSGGGGSDVQLVESGGGSVQVGGSLRLSCVDTSYTYTHYCMGWFRQAPGKEREGVAVMTTDGWTRYADSVKGRFIISKDNAKNTLYLQMNSLKLEDTAMYYCATNPWDSCTTGISTPSTFRTWGQGTQVTVSSGGGGSGGGGSGGGGSQVQLVESGGGSVQSGGSLRLSCVDSGYTYGHYCMGWFRQAPGKEREGVAAIRRDGVTRYADSVKGRFTISLDNAKSTLYLQMNSLKAEDTAMYYCATQRDCGISGLLWQSSVGYWGQGTQVTVSS
notes: Bi-paratopic Fc-VHH-VHH
B10: binds [1]; binds [2].

B11: SLN6073 VEGF inhibiting protein, as used in Example 3.10 (Fc fusion)
chain: EVQLVESGGGLVQPGGSLRLSCAASVYTSSTYYMAWFRQAPGKGREGVAAAYAGGGGTVYADSVKGRFTISQDNSKNTLYLQMNSLRAEDTAVYYCAARMSRLLGMAPLLPEHYDSWGQGTLVTVSSGGGGSGGGGSGGGGSEVQLVESGGGLVQPGGSLRLSCAASRDAYFNNYMAWFRQAPGKGLEGVSSIATNTGNDYYADSVKGRFTISRDNSKNTIYLQMNSLRAEDTAVYYCAAGWRGGSFWTPSKYSYWGQGTLVTVSS[human IgG4 Fc with S228P (EU numbers) not written out]
notes: G4Fc fused to the C-terminus
B11: no binding (tested: starting from 50 nM) [3]; no binding (tested: starting from 50 nM) [4].
